{"source": "the supplement of paper PMC12230231", "note": "± gives the standard deviation of the averaged measurements. Restriction of a single-cycle SIVsab GFP reporter by TRIM5α v1-loop variants in CRFK cells. Human variants: read share among cells still uninfected after two challenges over input, higher = gained restriction. Rhesus variants: share among infected cells over input, higher = lost restriction. Reporter dose not given per row. No active / inactive call per row; the paper calls a change when both replicates lie above its controls (mean + 2 SD of stop or wild-type variants, or the top frameshift score). Residues outside the varied loop are taken from Swiss-Prot. The paper reads the human single-substitution scores as noise; they and the rhesus combinations repeat poorly (rank correlation 0.3 to 0.4), indel scores repeat only for the top variants, rhesus substitutions well (0.9)."}
{"tested_on": "SIVsab (simian immunodeficiency virus of sabaeus monkeys), single-cycle GFP reporter, in CRFK cells", "test": "enrichment among uninfected cells over input (fold); higher = stronger restriction", "details": "library: human / rhesus combinations", "procedure": "(§1)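 Pools of CRFK cells expressing variants of the TRIM5α v1 loop were challenged with the single-cycle reporter, sorted by GFP and sequenced; mean of two replicates.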"}
{"sequence": "MASGILVNVKEEVTCPICLELLTQPLSLDCGHSFCQACLTANHKKSMLDKGESSCPVCRISYQPENIRPNRHVANIVEKLREVKLSPEGQKVDHCARHGEKLLLFCQEDGKVICWLCERSQEHRGHHTFLTEEVAREYQVKLQAALEMLRQKQQEAEELEADIREEKASWKTQIQYDKTNVLADFEQLRDILDWEESNELQNLEKEEEDILKSLTNSETEMVQQTQSLRELISDLEHRLQGSVMELLQGVDGVIKRTENVTLKKPETFPKNQRRVFRAPDLKGMLEVFRELTDVRRYWVDVTVAPNNISCAVISEDKRQVSSPKPQIIYGARGTLYTFQTFTNFNYCTGILGSQSITSGKHYWEVDVSKKTAWILGVCAGFQPDAMCNIEKNENYQPKYGYWVIGLEEGVKCSAFQDSSFHTPSVPFIVPLSVIICPDRVGVFLDYEACTVSFFNITNHGFLIYKFSHCSFSQPVFPYLNPRKCGVPMTLCSPSS [human TRIM5α, 330-340 = GARGTLYTFQTFT]", "enrichment": "1.07 ± 0.44"}
{"sequence": "MASGILVNVKEEVTCPICLELLTQPLSLDCGHSFCQACLTANHKKSMLDKGESSCPVCRISYQPENIRPNRHVANIVEKLREVKLSPEGQKVDHCARHGEKLLLFCQEDGKVICWLCERSQEHRGHHTFLTEEVAREYQVKLQAALEMLRQKQQEAEELEADIREEKASWKTQIQYDKTNVLADFEQLRDILDWEESNELQNLEKEEEDILKSLTNSETEMVQQTQSLRELISDLEHRLQGSVMELLQGVDGVIKRTENVTLKKPETFPKNQRRVFRAPDLKGMLEVFRELTDVRRYWVDVTVAPNNISCAVISEDKRQVSSPKPQIIYGAPGTLFTFQTFVNFNYCTGILGSQSITSGKHYWEVDVSKKTAWILGVCAGFQPDAMCNIEKNENYQPKYGYWVIGLEEGVKCSAFQDSSFHTPSVPFIVPLSVIICPDRVGVFLDYEACTVSFFNITNHGFLIYKFSHCSFSQPVFPYLNPRKCGVPMTLCSPSS [human TRIM5α, 330-340 = GAPGTLFTFQTFV]", "enrichment": "0.12 ± 0.076"}
{"sequence": "MASGILVNVKEEVTCPICLELLTQPLSLDCGHSFCQACLTANHKKSMLDKGESSCPVCRISYQPENIRPNRHVANIVEKLREVKLSPEGQKVDHCARHGEKLLLFCQEDGKVICWLCERSQEHRGHHTFLTEEVAREYQVKLQAALEMLRQKQQEAEELEADIREEKASWKTQIQYDKTNVLADFEQLRDILDWEESNELQNLEKEEEDILKSLTNSETEMVQQTQSLRELISDLEHRLQGSVMELLQGVDGVIKRTENVTLKKPETFPKNQRRVFRAPDLKGMLEVFRELTDVRRYWVDVTVAPNNISCAVISEDKRQVSSPKPQIIYQARGTLFTFPTFTNFNYCTGILGSQSITSGKHYWEVDVSKKTAWILGVCAGFQPDAMCNIEKNENYQPKYGYWVIGLEEGVKCSAFQDSSFHTPSVPFIVPLSVIICPDRVGVFLDYEACTVSFFNITNHGFLIYKFSHCSFSQPVFPYLNPRKCGVPMTLCSPSS [human TRIM5α, 330-340 = QARGTLFTFPTFT]", "enrichment": "0.434 ± 0.097"}
{"sequence": "MASGILVNVKEEVTCPICLELLTQPLSLDCGHSFCQACLTANHKKSMLDKGESSCPVCRISYQPENIRPNRHVANIVEKLREVKLSPEGQKVDHCARHGEKLLLFCQEDGKVICWLCERSQEHRGHHTFLTEEVAREYQVKLQAALEMLRQKQQEAEELEADIREEKASWKTQIQYDKTNVLADFEQLRDILDWEESNELQNLEKEEEDILKSLTNSETEMVQQTQSLRELISDLEHRLQGSVMELLQGVDGVIKRTENVTLKKPETFPKNQRRVFRAPDLKGMLEVFRELTDVRRYWVDVTVAPNNISCAVISEDKRQVSSPKPQIIYGARGTRYTFPSLTNFNYCTGILGSQSITSGKHYWEVDVSKKTAWILGVCAGFQPDAMCNIEKNENYQPKYGYWVIGLEEGVKCSAFQDSSFHTPSVPFIVPLSVIICPDRVGVFLDYEACTVSFFNITNHGFLIYKFSHCSFSQPVFPYLNPRKCGVPMTLCSPSS [human TRIM5α, 330-340 = GARGTRYTFPSLT]", "enrichment": "0.225 ± 0.22"}
{"sequence": "MASGILVNVKEEVTCPICLELLTQPLSLDCGHSFCQACLTANHKKSMLDKGESSCPVCRISYQPENIRPNRHVANIVEKLREVKLSPEGQKVDHCARHGEKLLLFCQEDGKVICWLCERSQEHRGHHTFLTEEVAREYQVKLQAALEMLRQKQQEAEELEADIREEKASWKTQIQYDKTNVLADFEQLRDILDWEESNELQNLEKEEEDILKSLTNSETEMVQQTQSLRELISDLEHRLQGSVMELLQGVDGVIKRTENVTLKKPETFPKNQRRVFRAPDLKGMLEVFRELTDVRRYWVDVTVAPNNISCAVISEDKRQVSSPKPQIIYGAPGTLYTFPTLTNFNYCTGILGSQSITSGKHYWEVDVSKKTAWILGVCAGFQPDAMCNIEKNENYQPKYGYWVIGLEEGVKCSAFQDSSFHTPSVPFIVPLSVIICPDRVGVFLDYEACTVSFFNITNHGFLIYKFSHCSFSQPVFPYLNPRKCGVPMTLCSPSS [human TRIM5α, 330-340 = GAPGTLYTFPTLT]", "enrichment": "0.128 ± 0.019"}
{"sequence": "MASGILVNVKEEVTCPICLELLTQPLSLDCGHSFCQACLTANHKKSMLDKGESSCPVCRISYQPENIRPNRHVANIVEKLREVKLSPEGQKVDHCARHGEKLLLFCQEDGKVICWLCERSQEHRGHHTFLTEEVAREYQVKLQAALEMLRQKQQEAEELEADIREEKASWKTQIQYDKTNVLADFEQLRDILDWEESNELQNLEKEEEDILKSLTNSETEMVQQTQSLRELISDLEHRLQGSVMELLQGVDGVIKRTENVTLKKPETFPKNQRRVFRAPDLKGMLEVFRELTDVRRYWVDVTVAPNNISCAVISEDKRQVSSPKPQIIYQARGTRFTFQSFTNFNYCTGILGSQSITSGKHYWEVDVSKKTAWILGVCAGFQPDAMCNIEKNENYQPKYGYWVIGLEEGVKCSAFQDSSFHTPSVPFIVPLSVIICPDRVGVFLDYEACTVSFFNITNHGFLIYKFSHCSFSQPVFPYLNPRKCGVPMTLCSPSS [human TRIM5α, 330-340 = QARGTRFTFQSFT]", "enrichment": "0.283 ± 0.12"}
{"tested_on": "SIVsab (simian immunodeficiency virus of sabaeus monkeys), single-cycle GFP reporter, in CRFK cells", "test": "enrichment among uninfected cells over input (fold); higher = stronger restriction", "details": "library: insertions and deletions", "procedure": "as §1"}
{"sequence": "MASGILVNVKEEVTCPICLELLTQPLSLDCGHSFCQACLTANHKKSMLDKGESSCPVCRISYQPENIRPNRHVANIVEKLREVKLSPEGQKVDHCARHGEKLLLFCQEDGKVICWLCERSQEHRGHHTFLTEEVAREYQVKLQAALEMLRQKQQEAEELEADIREEKASWKTQIQYDKTNVLADFEQLRDILDWEESNELQNLEKEEEDILKSLTNSETEMVQQTQSLRELISDLEHRLQGSVMELLQGVDGVIKRTENVTLKKPETFPKNQRRVFRAPDLKGMLEVFRELTDVRRYWVDVTVAPNNISCAVISEDKRQVSSPKPQIIYGARGTRYQTFVNFNYTFVNFNYCTGILGSQSITSGKHYWEVDVSKKTAWILGVCAGFQPDAMCNIEKNENYQPKYGYWVIGLEEGVKCSAFQDSSFHTPSVPFIVPLSVIICPDRVGVFLDYEACTVSFFNITNHGFLIYKFSHCSFSQPVFPYLNPRKCGVPMTLCSPSS [human TRIM5α, 7-codon duplication at 338]", "enrichment": "0.387 ± 0.15"}
{"sequence": "MASGILVNVKEEVTCPICLELLTQPLSLDCGHSFCQACLTANHKKSMLDKGESSCPVCRISYQPENIRPNRHVANIVEKLREVKLSPEGQKVDHCARHGEKLLLFCQEDGKVICWLCERSQEHRGHHTFLTEEVAREYQVKLQAALEMLRQKQQEAEELEADIREEKASWKTQIQYDKTNVLADFEQLRDILDWEESNELQNLEKEEEDILKSLTNSETEMVQQTQSLRELISDLEHRLQGSVMELLQGVDGVIKRTENVTLKKPETFPKNQRRVFRAPDLKGMLEVFRELTDVRRYWVDVTVAPNNISCAVISEDKRQVSSPKPQIRGTRYQTFVNFNYCTGILGSQSITSGKHYWEVDVSKKTAWILGVCAGFQPDAMCNIEKNENYQPKYGYWVIGLEEGVKCSAFQDSSFHTPSVPFIVPLSVIICPDRVGVFLDYEACTVSFFNITNHGFLIYKFSHCSFSQPVFPYLNPRKCGVPMTLCSPSS [human TRIM5α, 4-codon deletion at 328]", "enrichment": "0.425 ± 0.15"}
{"sequence": "MASGILVNVKEEVTCPICLELLTQPLSLDCGHSFCQACLTANHKKSMLDKGESSCPVCRISYQPENIRPNRHVANIVEKLREVKLSPEGQKVDHCARHGEKLLLFCQEDGKVICWLCERSQEHRGHHTFLTEEVAREYQVKLQAALEMLRQKQQEAEELEADIREEKASWKTQIQYDKTNVLADFEQLRDILDWEESNELQNLEKEEEDILKSLTNSETEMVQQTQSLRELISDLEHRLQGSVMELLQGVDGVIKRTENVTLKKPETFPKNQRRVFRAPDLKGMLEVFRELTDVRRYWVDVTVAPNNISCAVISEDKRQVSSPKPQIIYGARGTRYQYQTFVNFNYCTGILGSQSITSGKHYWEVDVSKKTAWILGVCAGFQPDAMCNIEKNENYQPKYGYWVIGLEEGVKCSAFQDSSFHTPSVPFIVPLSVIICPDRVGVFLDYEACTVSFFNITNHGFLIYKFSHCSFSQPVFPYLNPRKCGVPMTLCSPSS [human TRIM5α, 2-codon duplication at 336]", "enrichment": "0.302 ± 0.12"}
{"sequence": "MASGILVNVKEEVTCPICLELLTQPLSLDCGHSFCQACLTANHKKSMLDKGESSCPVCRISYQPENIRPNRHVANIVEKLREVKLSPEGQKVDHCARHGEKLLLFCQEDGKVICWLCERSQEHRGHHTFLTEEVAREYQVKLQAALEMLRQKQQEAEELEADIREEKASWKTQIQYDKTNVLADFEQLRDILDWEESNELQNLEKEEEDILKSLTNSETEMVQQTQSLRELISDLEHRLQGSVMELLQGVDGVIKRTENVTLKKPETFPKNQRRVFRAPDLKGMLEVFRELTDVRRYWVDVTVAPNNISCAVISEDKRQVSSPKPQIIYGARGTRYQTFFVNFNYCTGILGSQSITSGKHYWEVDVSKKTAWILGVCAGFQPDAMCNIEKNENYQPKYGYWVIGLEEGVKCSAFQDSSFHTPSVPFIVPLSVIICPDRVGVFLDYEACTVSFFNITNHGFLIYKFSHCSFSQPVFPYLNPRKCGVPMTLCSPSS [human TRIM5α, 1-codon duplication at 339]", "enrichment": "81.8 ± 1.3"}
{"sequence": "MASGILVNVKEEVTCPICLELLTQPLSLDCGHSFCQACLTANHKKSMLDKGESSCPVCRISYQPENIRPNRHVANIVEKLREVKLSPEGQKVDHCARHGEKLLLFCQEDGKVICWLCERSQEHRGHHTFLTEEVAREYQVKLQAALEMLRQKQQEAEELEADIREEKASWKTQIQYDKTNVLADFEQLRDILDWEESNELQNLEKEEEDILKSLTNSETEMVQQTQSLRELISDLEHRLQGSVMELLQGVDGVIKRTENVTLKKPETFPKNQRRVFRAPDLKGMLEVFRELTDVRRYWVDVTVAPNNISCAVISEDKRQVSSPRGTRYQTFVNFNYCTGILGSQSITSGKHYWEVDVSKKTAWILGVCAGFQPDAMCNIEKNENYQPKYGYWVIGLEEGVKCSAFQDSSFHTPSVPFIVPLSVIICPDRVGVFLDYEACTVSFFNITNHGFLIYKFSHCSFSQPVFPYLNPRKCGVPMTLCSPSS [human TRIM5α, 8-codon deletion at 324]", "enrichment": "0.514 ± 0.6"}
{"sequence": "MASGILVNVKEEVTCPICLELLTQPLSLDCGHSFCQACLTANHKKSMLDKGESSCPVCRISYQPENIRPNRHVANIVEKLREVKLSPEGQKVDHCARHGEKLLLFCQEDGKVICWLCERSQEHRGHHTFLTEEVAREYQVKLQAALEMLRQKQQEAEELEADIREEKASWKTQIQYDKTNVLADFEQLRDILDWEESNELQNLEKEEEDILKSLTNSETEMVQQTQSLRELISDLEHRLQGSVMELLQGVDGVIKRTENVTLKKPETFPKNQRRVFRAPDLKGMLEVFRELTDVRRYWVDVTVAPNNISCAVISEDKRQVSSPKPQIIYGARGTRYQNFNYCTGILGSQSITSGKHYWEVDVSKKTAWILGVCAGFQPDAMCNIEKNENYQPKYGYWVIGLEEGVKCSAFQDSSFHTPSVPFIVPLSVIICPDRVGVFLDYEACTVSFFNITNHGFLIYKFSHCSFSQPVFPYLNPRKCGVPMTLCSPSS [human TRIM5α, 3-codon deletion at 338]", "enrichment": "0.536 ± 0.16"}
